Reference: the supplement of paper PMC3334620
In all, about 33,000 sequences were measured (“E-score (-0.5 to 0.5)”: median about -0.056, highest 2% from about 0.38 on). The list shows a part of the results.

target: Stb4 (UniProt P50104); experiment: PBM E-score (8-mer binding enrichment) (E-score (-0.5 to 0.5)); higher = stronger / more preferred TF binding; most listed sequences are background and not binding sites; conditions: protein concentration: 200 nM; construct: GST-DNA-binding domain
Method in brief: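 The E-score, a modified Wilcoxon-Mann-Whitney statistic, was computed by the Universal PBM Analysis Suite for every ungapped eight-base word pooled with its reverse complement. Scans behind it were normalised with masliner after bound GST-tagged yeast transcription factors were detected with fluorescent anti-GST. The proteins, at about 100-200 nM, had been applied to universal all-10-mer Agilent arrays made double-stranded by primer extension.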

| Sequence | PBM E-score |
| --- | --- |
| TCAGAGAA | -0.281 |
| CATATAAG | -0.0888 |
| ACCGTATC | 0.182 |
| ACCTCACG | -0.061 |
| GGTATCGA | -0.0245 |
| CTAATGCC | -0.0126 |
| AGAGGATG | -0.0042 |
| AACACAGG | -0.0876 |
| CGTGAACC | -0.079 |
| CTTCGGTA | 0.383 |
| AGTTCGAA | 0.00309 |
| CACTGACC | 0.0448 |
| GTAACAAA | 0.0122 |
| CTCTCAAC | -0.219 |
| GCCTCTTA | -0.201 |
| GCTGTGCC | 0.184 |
| CCAATAAG | -0.224 |
| GAGCTACC | -0.0823 |
| GAGAAGCC | 0.0273 |
| TGCCCGAA | 0.161 |
| GTATCCGA | 0.487 |
| GAAGTCGC | 0.00355 |
| CCACGGAA | 0.354 |
| ACGCCTTA | -0.0552 |
| CTTCATAA | -0.0934 |

| Sequence | PBM E-score |
| --- | --- |
| AATACCGC | 0.146 |
| CCACTAGG | -0.366 |
| CATTGACC | -0.106 |
| ACTTCCAT | 0.0787 |
| GGGTCCTA | -0.0879 |
| GGTCGCAC | -0.0458 |
| CGACAACA | 0.0716 |
| ATTTTCCA | -0.0573 |
| TGATATAA | -0.0748 |
| ATCCCCTG | -0.257 |
| ACTGCTTG | -0.0295 |
| ACTACAGA | 0.0725 |
| CGTCAGTA | -0.16 |
| AAAACGAG | -0.262 |
| CCGGCGAG | 0.173 |
| GAGGGAGC | -0.0555 |
| AGGTTTAA | -0.0812 |
| AGACTATC | -0.197 |
| ATTCAGTG | 0.185 |
| TAGGGAGA | -0.141 |
| AGGCGTGC | -0.0495 |
| AGCGCACG | 0.0198 |
| ACAGTAGG | -0.105 |
| GTCATCAC | -0.218 |
| GCCTCTCC | -0.182 |

| Sequence | PBM E-score |
| --- | --- |
| AATATTAG | -0.31 |
| ATCGCGCA | -0.247 |
| GAACACAA | -0.217 |
| AAGCCATC | 0.0419 |
| ATGCTGAA | -0.126 |
| CAGCCGAC | 0.311 |
| ATTAGTTA | 0.0511 |
| CACGTCCA | -0.142 |
| AGACCTGA | 0.00421 |
| TCCTTAGA | -0.307 |
| GGGCTAAC | -0.125 |
| AACTCATC | 0.0713 |
| CGGCGTGC | 0.0558 |
| AGAATCAA | -0.0187 |
| AACGGAAG | 0.284 |
| CCGTTCAA | 0.113 |
| GTAATCCA | -0.162 |
| CACGCTAG | -0.0758 |
| ACTCCATG | -0.0565 |
| CCGAAACC | 0.395 |
| AACACTGA | -0.073 |
| GCAGAGCC | 0.0507 |
| CTATTGCC | -0.0143 |
| ATTTAGCA | -0.0745 |
| TAGCAGAA | -0.148 |

| Sequence | PBM E-score |
| --- | --- |
| AGGATGAG | -0.0883 |
| TTCGAAAA | -0.157 |
| AGGGAGAC | -0.207 |
| CCTCTGGC | 0.0427 |
| ACGTGGAA | -0.154 |
| AAGTAGTA | -0.201 |
| ATACTCCC | 0.2 |
| CGCGAATC | -0.0602 |
| ACCAAGAA | -0.0301 |
| GTGCTACA | -0.432 |
| GGATCCCC | 0.253 |
| CATCTGCA | -0.144 |
| CTTGGCCC | -0.174 |
| AGCTTGTG | -0.247 |
| GTTGCCCA | -0.0723 |
| CGGACACG | 0.253 |
| AACTGTAG | -0.305 |
| AAGTATCC | 0.226 |
| CGGGGGTC | 0.0962 |
| AAATACAA | 0.0523 |
| GCCTGTAC | 0.0775 |
| CACTTCGC | -0.162 |
| CATGAAAA | -0.0912 |
| GGGAACCC | 0.0924 |
| CCGGCTCG | 0.348 |

| Sequence | PBM E-score |
| --- | --- |
| CGACGAGA | 0.0326 |
| CAATGAAG | -0.331 |
| AATAGTAT | 0.0933 |
| CTATGTTC | -0.017 |
| AACAGAGA | -0.0643 |
| ATGGGGCC | -0.209 |
| CCATCAAC | -0.251 |
| AGACCACT | -0.228 |
| AATAAGTC | -0.262 |
| GCCAGCGA | -0.13 |
| AACTTATT | 0.113 |
| AACGGTTA | 0.104 |
| ACACTAGC | -0.187 |
| GAGTGGGC | 0.0172 |
| AATTCTGC | -0.0158 |
| AAGCGGCG | 0.0131 |
| TACATCAA | -0.14 |
| CCGACTCG | 0.295 |
| AGATTTGG | -0.196 |
| CACAACCA | 0.0206 |
| CGCTCGCC | -0.0544 |
| AGTCTCCA | -0.294 |
| CTCCGCGA | 0.0734 |
| GGTGTGTA | -0.16 |
| GCTCAAGA | -0.222 |

| Sequence | PBM E-score |
| --- | --- |
| CTGTATTC | 0.0647 |
| CCATTGCC | 0.0986 |
| CCGAATCC | 0.427 |
| CCGATGAG | 0.257 |
| CGGCCAAG | 0.00948 |
| GGGTAGAC | 0.0641 |
| CTAGTCAA | -0.133 |
| ACCATGAT | -0.0957 |
| TTGGCAAA | -0.183 |
| TAATGGCA | -0.122 |
| CTCTTGCA | -0.13 |
| ACCTTGAC | -0.126 |
| ACATCCTC | 0.0584 |
| ATCTCACC | 0.0345 |
| CTCCTTAA | -0.0953 |
| GGCTGGAC | -0.0621 |
| AGTCACTG | -0.274 |
| ATTTAAAC | -0.197 |
| ATATGTCG | -0.00545 |
| ACGAACTC | -0.0195 |
| AATATACA | -0.185 |
| GGTGGTGA | 0.0903 |
| CGTGTTCA | -0.127 |
| TAACCTTA | -0.0931 |
| ACGCTAAT | 0.0721 |

| Sequence | PBM E-score |
| --- | --- |
| CAGGACGG | -0.091 |
| ACAGTGCT | -0.181 |
| ATCTCAAT | -0.0916 |
| CTCTTAAA | -0.149 |
| CTTATATC | 0.0498 |
| CCTAATCA | 0.0039 |
| AGATCCCC | -0.0874 |
| AGGATAGA | -0.107 |
| AGCCCATG | -0.273 |
| AGTCTCGG | 0.39 |
| ATGGCATA | -0.124 |
| AGTCCCCC | -0.311 |
| AGAAGAAT | 0.023 |
| CACTCACC | -0.107 |
| AAGGCTCT | -0.127 |
| ATGTCCCC | 0.0519 |
| ATTACTTC | -0.0323 |
| CCTTTGGA | -0.163 |
| AAAGCGCC | -0.0491 |
| AGATAATA | -0.0269 |
| AAATGAAT | -0.214 |
| CGTTCCTA | -0.00632 |
